Results taken from PubChem BioAssay AID1768 (National Center for Advancing Translational Sciences (NCATS), 2009).
Among all 270,000 compounds or so, about 620 (0.23%) were called active. Inconclusive results, whose numbers are uncertain, are shown with a selection of clear calls. Calls follow the shape of the dose curve; as a rule, active = well fitted inhibition curve with a large enough effect in the polarisation, with a control signal flat (not every such curve was filed as active); inconclusive = small, poorly fitted or top-dose-only effect, or effect the other way, or a change in a side signal; inactive = no such curve, though single readings can be large or run the other way; the % refers to the polarisation. A potency beside an inconclusive call is a rough fit, not a confirmed value. A note “side channel” means that the fit belongs to a control or component signal, not to the main read-out.

Each molecule was assayed against Menin (Homo sapiens) (UniProt O00255) (assay: qHTS Assay for Inhibitors Targeting the Menin-MLL Interaction in MLL Related Leukemias: Competition With Texas Red Labeled MLL-derived Mutant Peptide). Conditions: fluorescence polarization; series mostly up to 61.6 µM.
Chain of UniProt O00255 (O00255 whole entry, looked up): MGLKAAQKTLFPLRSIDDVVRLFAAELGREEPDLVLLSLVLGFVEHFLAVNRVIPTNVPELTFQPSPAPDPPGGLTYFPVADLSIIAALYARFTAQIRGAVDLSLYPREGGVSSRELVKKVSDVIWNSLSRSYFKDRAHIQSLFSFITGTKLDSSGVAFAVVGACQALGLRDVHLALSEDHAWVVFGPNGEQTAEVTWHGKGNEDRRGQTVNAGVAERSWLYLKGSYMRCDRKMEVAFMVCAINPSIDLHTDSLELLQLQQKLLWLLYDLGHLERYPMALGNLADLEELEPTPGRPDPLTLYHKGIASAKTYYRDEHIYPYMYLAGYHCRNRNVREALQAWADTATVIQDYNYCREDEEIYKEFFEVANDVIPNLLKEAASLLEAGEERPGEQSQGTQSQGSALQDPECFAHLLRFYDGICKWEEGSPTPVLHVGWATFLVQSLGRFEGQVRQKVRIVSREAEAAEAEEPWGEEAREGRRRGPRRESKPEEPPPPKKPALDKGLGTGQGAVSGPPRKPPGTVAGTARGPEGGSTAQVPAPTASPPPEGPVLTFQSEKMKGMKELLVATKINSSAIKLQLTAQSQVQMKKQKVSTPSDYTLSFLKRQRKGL
Potency is read from the fitted curve at half-maximal effect; tags tell the direction and shape of the fitted curve or compound fluorescence and quenching.

Potency, inactive:
CCC(C)NC(=O)CSC1=Nc2ccccc2C2=NC(CC(=O)NCc3ccccc3)C(=O)N12 (configuration not stated), CCCn1c2ccccc2c2cnn(CC(=O)N3CCN(C4CCCCC4)CC3)c(=O)c21, CCN1C(=O)C(CC(=O)Nc2ccc(OC)cc2)N(CCCN2CCN(c3ccc(F)cc3)CC2)C1=S (configuration not stated), C#CCOc1ccc(C(=O)N(C)c2ccccc2I)cc1, Cc1cc(C)n2nc(SCc3ccccc3F)nc2n1, CC1(C)Oc2ccc(/C=C/C(=O)N3CCOCC3)c(O)c2C(N2CCOCC2)C1O (configuration not stated), COc1ccc(OCc2cc(C(=O)N(Cc3nccn3C)C(C)C)no2)c2ccccc12, COc1ccccc1OCC(=O)NNC(=O)Nc1ccc(Cl)cc1, Cn1c(/C(C#N)=C/C2CC=CCC2)nc2ccccc21 (configuration not stated), Cc1cc(CN(C)C(=O)CC2C(=O)NCCN2Cc2c(F)cccc2Cl)n[nH]1 (configuration not stated), CN1C(=O)/C(=C/c2ccc(-c3ccccc3[N+](=O)[O-])o2)SC1=Nc1ccc(Cl)c(C(=O)O)c1

Potency, inconclusive:
COc1ccc(OCc2nc3ccc(S(=O)(=O)Nc4ccccc4Cl)cc3[nH]2)cc1 28.2 µM [quencher, side channel, partial curve], O=C1ON=C(c2ccccc2)/C1=C/c1ccc(-c2ccccc2[N+](=O)[O-])o1 20 µM [quencher, side channel, partial curve], CC(=O)c1cccc(S(=O)(=O)N2CCCC(c3nc4c(nnn4Cc4ccccc4Cl)c(=O)[nH]3)C2)c1 (configuration not stated) 10 µM [quencher, side channel, single point], Cc1cc(NS(=O)(=O)c2ccc(NC(=O)/C=C/c3ccc(Br)cc3)cc2)no1 10 µM [quencher, side channel, partial curve], CCCCC1CCC(c2nc(-c3ccccn3)no2)CC1 (configuration not stated) 8.91 µM [fluorescent, side channel, full curve, poor fit], COc1ccc(/C=C/C(=O)N(CC(C)C)CC(C)C)cc1Br 6.31 µM [inhibitor, partial curve], Cc1ccc(N2C(=O)/C(=C\c3ccco3)SC2=S)cc1 3.16 µM [quencher, side channel, partial curve], COc1cc(NC(=O)CSCC(=O)Nc2cccc(C(F)(F)F)c2)c(Cl)cc1Cl 12.6 µM [quencher, side channel, partial curve], NCCCNC(=O)Cn1c(=O)c2c3c(sc2n(Cc2ccccc2)c1=O)CCCC3 17.8 µM [fluorescent, side channel, partial curve], Cc1cc(C)cc(OCC(=O)Nc2cc(NC(=O)COc3cc(C)cc(C)c3)cc(C(=O)O)c2)c1 14.1 µM [quencher, side channel, partial curve], Cc1c(NC(=O)c2cc3nc(-c4ccccc4)cc(C)n3n2)c(=O)n(-c2ccccc2)n1C 11.2 µM [inhibitor, single point], COC(=O)C1=C(C)N=c2s/c(=C/c3ccoc3)c(=O)n2C1c1ccccc1 (configuration not stated) 39.8 µM [quencher, side channel, single point], O=C(CNc1cccc2ccccc12)c1ccc([N+](=O)[O-])cc1 25.1 µM [quencher, side channel, single point], CCOC(=O)CSc1nnc(-c2ccoc2C)n1-c1ccc(C)cc1 25.1 µM [inhibitor, single point], CCS(=O)(=O)c1ccc(OC)c(N=Nc2ccc(O)c3ncccc23)c1 20 µM [quencher, side channel, partial curve], c1ccc(-c2cc3c(-n4cccc4)ncnc3o2)cc1 14.1 µM [quencher, side channel, partial curve], N#C/C(=N/Nc1ccc([N+](=O)[O-])cc1)C(=N)N1CCCCC1 14.1 µM [quencher, side channel, partial curve], Cc1ccc(-c2cnc(NC(=O)CCC(=O)N(C)Cc3ccccc3)n2C)cc1 3.98 µM [inhibitor, partial curve], O=C(C1=C[C@@H](C2CCCCC2)C[C@@H](OCc2ccc(CO)cc2)O1)N1CCN(Cc2ccccc2)CC1 1.12 µM [fluorescent, side channel, full curve], Cc1ccc(C(=O)CC2C(=O)N(c3ccccc3)C(=S)N2c2ccccc2)cc1 (configuration not stated) 39.8 µM [inhibitor, single point], O=C(O)c1cccc(Nc2cc(Cl)c3nonc3c2[N+](=O)[O-])c1 12.6 µM [quencher, side channel, partial curve], O=C1ON=C(c2cccc([N+](=O)[O-])c2)/C1=C/c1ccc(O)cc1 35.5 µM [quencher, side channel, single point], COc1cc2c(cc1NC(=O)Nc1ccc(F)cc1)oc1ccccc12 10 µM [quencher, side channel, partial curve], COc1ccccc1CNc1nc2ccccc2n1CCN1CCCCC1 28.2 µM [inhibitor, partial curve], NC(=O)c1ccsc1NC(=O)COC(=O)c1ccccc1NCc1ccco1 22.4 µM [quencher, side channel, partial curve], CC(C)CCn1c(N2CCCC2)nc2c1c(=O)[nH]c(=O)n2C 0.316 µM [inhibitor, full curve, poor fit], C/C(CCc1ccco1)=N\NC(=O)CNc1cccc2ccccc12 7.08 µM [quencher, side channel, partial curve], CNC(=S)N(CCc1c(C)[nH]c2ccc(C)cc12)Cc1ccco1 25.1 µM [quencher, side channel, single point], O=C1c2cccnc2C(=O)N1Cc1ccc(S(=O)(=O)N2CCN(c3ccc(Cl)cc3)CC2)cc1 14.1 µM [fluorescent, side channel, partial curve], Cc1ccc(-c2csc3ncnc(SCC(=O)c4ccc5c(c4)OCCO5)c23)cc1 25.1 µM [inhibitor, single point], O=C(CSc1ccc(-c2ccc(F)cc2)nn1)NCCc1ccccc1 39.8 µM [inhibitor, single point], Cc1c(N2C(=O)/C(=C/c3ccccc3)SC2=S)c(=O)n(-c2ccccc2)n1C 5.62 µM [inhibitor, single point], CCn1c(=N)n(CC(=O)C(C)(C)C)c2ccccc21 39.8 µM [fluorescent, side channel, single point], C#CCOCCOCCOCCNc1nc(N2CCN(C(=O)[C@H]([C@@H](C)CC)n3cc([C@@H](N)CC(C)C)nn3)CC2)nc(N2CCN(C(=O)[C@H](Cc3ccc(O)cc3)n3cc([C@@H](N)C(C)CC)nn3)CC2)n1 (some centres not stated) 2.82 µM [fluorescent, side channel, full curve], OC(CNCCc1ccc(C(F)(F)F)cc1)COc1ccc2ccccc2c1 (configuration not stated) 17.8 µM [fluorescent, side channel, partial curve], Cc1ccc2cccc(OCc3ccc(Br)cc3)c2n1 15.8 µM [fluorescent, side channel, partial curve], Cc1ccc2cc(CNC(C)(C)C)c(=O)[nH]c2c1 3.16 µM [inhibitor, partial curve], COCCNC(=O)C1CCC(CNS(=O)(=O)c2c(C)cc(C)cc2C)CC1 (configuration not stated) 5.62 µM [inhibitor, full curve], Cc1n[nH]c(=S)n(NC(=O)/C=C/C(=O)Nn2c(=S)[nH]nc(C)c2=O)c1=O 35.5 µM [quencher, side channel, single point], CCOc1ccc(CNC(=O)CCCc2cn(C)c3ccccc23)cc1 28.2 µM [fluorescent, side channel, single point], CC1CCN(S(=O)(=O)c2ccc(C(=O)OCc3ccc4c(c3)OCO4)cc2)CC1 2.82 µM [fluorescent, side channel, full curve], Oc1ccccc1C1CC(c2cccs2)=NC(c2ccc(Cl)cc2)N1 (configuration not stated) 14.1 µM [quencher, side channel, partial curve], Cc1cc(SCC(=O)N/N=C/c2ccc(O)cc2O)nc2ccccc12 22.4 µM [quencher, side channel, single point], O=c1[nH]nc(CNc2ccc(O)cc2)c2ccccc12 35.5 µM [inhibitor, single point], Cc1cccc(OCc2nnc(SCc3nc4cc(C(F)(F)F)ccc4c(=O)[nH]3)o2)c1 25.1 µM [quencher, side channel, partial curve], CN1C(=O)C(C)(C)c2cc(S(=O)(=O)NCc3ccc(Cl)cc3)ccc21 39.8 µM [inhibitor, single point]
